The source of these data is patent US20240247069A1, “FGFR3 BINDING MOLECULES AND METHODS OF USE THEREOF” (Regeneron Pharmaceuticals, Inc., priority 2023, published 2024).

The test system of assay [1] is RT4 bladder cancer cells (FGFR3-TACC3 fusion). Nature of the assay: RT4 spheroid proliferation assay (CellTiter-Glo 3D). Type of assay: cell-based, human. Here is the method:
Two human bladder cancer cell lines, UMUC14 (Sigma-Aldrich) and RT4 (ATCC), which express an S249C mutation of FGFR3 or express TACC3-FGFR3 fusion mutation, respectively, were maintained in culture according to the suppliers' recommendations.
7500 UMUC14 or 5000 RT4 bladder cancer cells were seeded in U-bottom low attachment 96-well spheroid plate (Corning) in culture medium (MEM medium with 10% FBS, 1% non-essential amino acids, Pen/Strep). Cells were cultured for 24-48 hours at 37° C. 5% CO2 to allow tumor spheroid formation. Tumor spheroids were treated with antibodies at concentrations ranging from 100 nM to 15.2 pM with 1:3 serial dilution as indicated in the figures. Cells were cultured for 5-6 days, and then subjected to CellTiter-Glo 3D viability assays (Promega) following the manufacturer's protocol. Luminescence signal was read on PE Envision plate reader. Cell proliferation was expressed as percentages of untreated controls. Data were analyzed using GraphPad Prism software using three parameter nonlinear curve fit.

The test system of assay [2] is MAPK phosphorylation in BaF3 cells expressing Y375C hFGFR3b. The assay can be described thus: Western blot of FGF1/heparin induced MAPK phosphorylation in BaF3 Y375C hFGFR3b cells. The conditions noted are these: 100 nM antibody overnight; 100 nM FGF1 + 10 μg/ml heparin 15 min. Type of assay: cell-based. How it is done:
To evaluate receptor phosphorylation and downstream signaling, cells were serum starved overnight in the presence or absence of indicated antibodies followed by ligand (100 ng/ml human FGF1 and 10 μg/ml heparin) stimulation for 15 min at 37° C. Equal amounts of cell lysates were analyzed by SDS-PAGE. Blots were incubated with pMAPK, MAPK or actin antibodies followed by incubation with HRP secondary antibody. For FGFR3 phosphorylation, equal amounts of cell lysates were incubated with pY100 Sepharose beads overnight and non-specific binding was removed by washes with lysis buffer. Immunoprecipitated proteins were analyzed by reducing or non-reducing SDS-PAGE and blotted with FGFR3 antibody.

Assay [3] has as its target T1, FGFR3 (Homo sapiens, UniProt P22607, S249C).
T1 construct: UMUC14 cells, which endogenously express the FGFR3 S249C mutation; endogenous in cells; host or cells: UMUC14 (Sigma-Aldrich)
The assay can be described thus: Western blot of FGFR3 receptor degradation in UMUC14 cells. Type of assay: cell-based. The conditions noted are these: 33 nM, 16 hrs. How it is done: For receptor degradation assessments, cells were treated with 33 nM of a designated antibody for 16 hours. Cells were then washed with pre-chilled PBS and collected in lysis buffer containing protease inhibitors (Cell Signaling Technology). Equal amounts of cell lysate were loaded on either reducing or non-reducing SDS-PAGE for protein separation. PVDF membranes with transferred proteins were blocked in tris-buffered saline (TBS) containing 5% nonfat dry milk and 0.5% Tween 20 and incubated overnight with anti-FGFR3 primary antibody (Santa Cruz). Membranes were washed three times with TBST, incubated with HRP-conjugated goat anti-rabbit secondary antibody (Seracare), and developed with SuperSignal West chemiluminescent substrate (Thermo Scientific). Images were captured with a C300 imager (Azure Biosystems).
To assess the effect of antibody on receptor degradation, UMUC14 cells were treated with indicated antibodies at 33 nM for 16 hrs. Total FGFR3 receptor levels were analyzed by western blot.

Another assay concerns the target T2, hFGFR3c (mmh) (Homo sapiens, UniProt P22607).
T2 construct: biotinylated human or mouse FGFR3b-ecto.mmH, human FGFR3c-ecto.mmH; mmh (own knowledge: myc-myc-hexahistidine) (C)
T2 sequence (P22607 23-375 limits assumed): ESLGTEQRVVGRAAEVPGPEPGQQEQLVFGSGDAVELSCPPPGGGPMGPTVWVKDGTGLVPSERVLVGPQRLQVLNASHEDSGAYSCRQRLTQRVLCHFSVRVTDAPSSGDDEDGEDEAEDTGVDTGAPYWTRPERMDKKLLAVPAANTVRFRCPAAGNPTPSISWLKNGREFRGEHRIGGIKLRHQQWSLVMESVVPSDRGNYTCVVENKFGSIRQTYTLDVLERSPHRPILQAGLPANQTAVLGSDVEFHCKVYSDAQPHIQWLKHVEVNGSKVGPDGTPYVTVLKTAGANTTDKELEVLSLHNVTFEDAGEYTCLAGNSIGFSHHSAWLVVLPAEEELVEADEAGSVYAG
Nature of the assay: Biacore binding to human FGFR3c. Here is the method: Affinity and mechanism of action of binding of anti-FGFR3 antibodies to FGFR3 isoforms were determined by Biacore analysis. In brief, in-house generated monoclonal anti-human Fc antibody was immobilized on the surface of a CM-5 sensor chip. Different concentrations of FGFR3 antibodies were injected at 50 μL/min for 4 min and the assay was performed at 25° C. The mAb binding response was monitored and, for low affinity receptors, steady-state binding equilibrium was calculated. Kinetic association (ka) and dissociation (kd) rate constants were determined by processing and fitting the data to a 1:1 binding model using Scrubber 2.0 curve fitting software. Binding dissociation equilibrium constants (KD) and dissociative half-lives (t1/2) were calculated from the kinetic rate constants using the formula: KD (M)=kd/ka; and t1/2 (min)=(ln2/(60*kd). Some KD values were derived using the steady state equilibrium dissociation constant; When no KD values could be derived, it was marked as NB (no binding observed) or IC (inconclusive affinity determination due to low specific RU signal).

For another assay, the target named is T3, FGFR3 S249C (Homo sapiens, UniProt P22607, S249C).
T3 construct: UMUC14 cells, which endogenously express the FGFR3 S249C mutation; endogenous in cells; host or cells: UMUC14 (Sigma-Aldrich)
The assay can be described thus: Western blot of FGFR3 receptor dimerization in UMUC14 cells. Type of assay: cell-based. The conditions noted are these: 33 nM, 3 hours, non-reducing SDS-PAGE. Here is the method:
For receptor dimerization assessments, UMUC14 bladder cancer cells or BaF3 cells were seeded in 6 well tissue culture plate (Corning) in complete medium (MEM medium with 10% FBS, 1% non-essential amino acids, Glutamine, Pen/Strep) and cultured overnight at 37° C. with 5% CO2. Cells were then serum starved overnight in starvation medium (MEM medium with 0.5% FBS, Pen/Strep) followed by antibody treatment for 3 hours at indicated concentrations. Equal amounts of cell lysates were analyzed by either reducing or non-reducing SDS-PAGE. Membranes were blotted with anti-FGFR3 primary antibody (Santa Cruz) and developed with SuperSignal West Pico substrate (Pierce) and luminescence images were captured with a C300 imager (Azure Biosystems).
To gain insight into the mechanisms of antiproliferative activity of BiP063N2, effects of antibodies on FGFR3 receptor dimerization, degradation, and downstream signaling were evaluated by western blot as described in Section 8.1.5. UMUC14 cells, which endogenously express the FGFR3 S249C mutation, were treated with indicated antibodies at 33 nM for 3 hours. After treatment, FGFR3 monomers and disulfide-linked dimers were separated via a non-reducing SDS-polyacrylamide gel (FIG. 6A, top). The mobilities of the monomeric and dimeric FGFR3 are indicated.

For assay [4], the system named is FGFR3. The assay can be described thus: Agonist activity of parental anti-FGFR3 antibodies (Table 1). Type of assay: cell-based.
For assay [5], the system named is LU-0813 tumors (FGFR3 S249C). The assay can be described thus: In vivo tumor growth inhibition, LU-0813 PDX model. Set-up: species or system mouse. The conditions noted are these: mAb063 10 mg/kg, BiP063N2 13.3 mg/kg, twice per week. How it is done: Next, the ability of BiP063N2 to inhibit the growth of a patient-derived lung squamous cell carcinoma model LU-0813 was assessed.

T3 sequence (P22607 23-808 isoform P22607-2 S249C limits assumed): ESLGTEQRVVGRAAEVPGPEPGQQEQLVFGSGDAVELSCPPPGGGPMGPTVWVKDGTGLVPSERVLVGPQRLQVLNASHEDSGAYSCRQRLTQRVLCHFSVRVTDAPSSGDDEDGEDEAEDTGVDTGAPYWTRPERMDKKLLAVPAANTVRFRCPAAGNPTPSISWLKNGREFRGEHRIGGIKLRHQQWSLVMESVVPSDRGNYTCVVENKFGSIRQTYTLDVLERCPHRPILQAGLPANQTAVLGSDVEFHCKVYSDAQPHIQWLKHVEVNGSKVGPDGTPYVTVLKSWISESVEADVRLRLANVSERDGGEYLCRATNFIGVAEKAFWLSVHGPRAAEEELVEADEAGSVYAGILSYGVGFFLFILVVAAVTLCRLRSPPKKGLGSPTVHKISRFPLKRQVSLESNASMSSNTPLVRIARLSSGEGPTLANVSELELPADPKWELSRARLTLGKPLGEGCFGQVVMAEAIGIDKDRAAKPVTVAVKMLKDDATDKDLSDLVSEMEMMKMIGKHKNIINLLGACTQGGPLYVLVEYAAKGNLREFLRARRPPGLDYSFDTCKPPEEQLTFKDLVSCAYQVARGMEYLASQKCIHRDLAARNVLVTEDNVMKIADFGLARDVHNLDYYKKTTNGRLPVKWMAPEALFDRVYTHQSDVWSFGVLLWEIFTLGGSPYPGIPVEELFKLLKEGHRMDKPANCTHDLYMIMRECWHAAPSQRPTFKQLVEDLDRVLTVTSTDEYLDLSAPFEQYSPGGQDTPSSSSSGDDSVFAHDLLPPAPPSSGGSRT
T1 sequence (P22607 23-808 isoform P22607-2 S249C limits assumed): as above

B1: mAb063: parental anti-FGFR3 antibody; anchor or additional arm; parent of BiP063N2 (antibody)
heavy: QVQLQESGPGLVKPSETLSLTCTVSGDSINSYFWSWIRQLPGKELEWIGHIYSSGSTRYNPSLQSRVTISIDTSKNQFSLKLSSVTAADTAVYYCARGASAVDYWGQGTLVTVSSASTKGPSVFPLAPCSRSTSESTAALGCLVKDYFPEPVTVSWNSGALTSGVHTFPAVLQSSGLYSLSSVVTVPSSSLGTKTYTCNVDHKPSNTKVDKRV[human IgG4 Fc with S228P (EU numbers) cut from this listing]
light: EIVLTQSPGTLSLSPGERATLSCRTSQSISSGYLAWYQQKPGQAPRLLIYGASRRATGIPDRFSGSGSGTDFTLTISRLEPEDFVVYYCQQYGSSPYTFGQGTKLEIKRTVAAPSVFIFPPSDEQLKSGTASVVCLLNNFYPREAKVQWKVDNALQSGNSQESVTEQDSKDSTYSLSSTLTLSKADYEKHKVYACEVTHQGLSSPVTKSFNRGEC
For the molecule B1, in assay [1] (5 to 6 days treatment), the “antiproliferative activity in RT4 spheroid proliferation assay” value is recorded as “modest inhibitory activity”. In addition, the “impact of IgG subclass on activity on RT4 cell proliferation” value in assay [1] (IgG1, IgG2, IgG4s backbones) is listed as “modest effect on IC50”. Besides, the “pMAPK after FGF1/heparin stimulation, Y375C hFGFR3b” value in assay [2] is recorded as “small increase in pMAPK levels”. Also, in the assay with FGFR3 [3], the “effect on FGFR3 receptor degradation” value is listed as “did not induce receptor degradation”. In the assay with hFGFR3c (mmh), the “binding to monomeric human FGFR3c (in words)” value was “not detected”. Further, the “effect on FGFR3 S249C receptor dimerization” value with FGFR3 S249C is recorded as “potently inhibited receptor dimer formation”. Moreover, the “Agonist Activity (percent value of the cell)” value in the assay on FGFR3 [4] was 16.1%. In assay [5], the “effect on LU-0813 tumor growth” value is listed as “strongly inhibited tumor growth”.
